This is an account of results in PubChem BioAssay AID1845219 (Molecular Pharmacology Branch, DTP, NCI, 2023).

The structures appear in SMILES notation. Some entries of the source have several records that differ or are many. This list holds those alone. There may be further records. Values given together are repeated measurements in other runs, samples, wells, individuals or studies. Marks such as (2×) count equal records among those shown.

In the experiment the test system is SYO-1 tumor spheroids, viability % test/control. Put plainly: Anticancer human tumor SYO-1 cell line growth inhibition.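 Also: spheroids exposed to agents for 7 days before viability read; 100% = DMSO vehicle control.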 As to conditions: stronger effect = lower value, spheroids with HUVEC and MSC. The source says:
Multicellular complex tumor spheroid response to DNA repair inhibitors in combination with DNA-damaging drugs
This study explores the anticancer activities of DNA-damaging drugs and inhibitors of DNA damage repair, both as single agents and in combinations. Complex tumor spheroids comprised of malignant cells, endothelial cells and mesenchymal stem cells served as an in vitro model for human solid tumors. This model system incorporates physiologically relevant features and patient-derived or established malignant cell lines with clinically relevant genetic alterations from many tumor types. Twenty-six patient-derived or established malignant cell lines were evaluated representing sarcoma, melanoma, small cell lung cancer (SCLC), non-small cell lung cancer (NSCLC), as well as bladder, ovarian and pancreatic cancers. The concentration ranges selected for each drug and investigational agent were based upon clinically achievable concentrations if the clinical Cmax of the agent was known.
Compounds. The drugs and compounds olaparib (NSC753686), talazoparib (NSC767125), berzosertib (NSC777718), elimusertib (NSC800525), nedisertib (NSC802822), VX-984 (NSC792969), AZD-1390 (NSC803789), temozolomide (NSC362856), topotecan (NSC609699), trabectedin (NSC813783), staurosporine (NSC755774), and gemcitabine (NSC613327) were obtained from the National Cancer Institute (NCI) Developmental Therapeutics Program Chemical Repository. The FDA-approved anticancer drug set is available from the Developmental Therapeutics Program at https://dtp.cancer.gov/organization/dscb/obtaining/available_plates.htm. […] The stock solutions were prepared in dimethyl sulfoxide (DMSO, Sigma-Aldrich, St. Louis, MO, cat. D2650) at 400-fold the tested concentration and stored at -70 degrees C. Prior to their use, the stock solutions were diluted in fresh medium and the final DMSO concentration in the assay was 0.25% (v/v). All drugs and investigational agents were tested over a range starting from a high concentration at or near the clinical Cmax and decreasing in half-log increments. If the clinical Cmax for an agent had not been determined, the highest concentration tested was 10 microM.
Cell Lines. The patient-derived cancer cell (PDC) lines: 156681-154-R-J1-PDC, 283228-195-R-J1-PDC, 287954-098-R-J1-PDC, 292921-168-R-J2-PDC, 349418-098-R-PDC, 425362-245-T-J1-PDC, 556581-035-R-J1-PDC, and BL0293-F563-PDC were received from the NCI Patient-Derived Models Repository (PDMR, https://pdmr.cancer.gov). The established cell lines HS-SY-2 (RRID:CVCL_8719), MPNST, and SYO-1 (RRID:CVCL_7146) were obtained from the Sloan Kettering Institute. The alveolar soft parts sarcoma cell line ASPS-1 (RRID:CVCL_S738) was established at the NCI and grown from internal seed stocks. […]

Usually viability, T/C stands for the ratio of treated to control. Turning to `CC[C@@]1(O)C(=O)OCc2c1cc1n(c2=O)Cc2cc3c(CN(C)C)c(O)ccc3nc2-1`, under “compound alone 0.00949 µM”, the viability, T/C is 10.3, 7.39, 35.6, 17, 13.9, 30.3, 32.3, 22.4, 28.5, 27.9%. With `COc1cc2c(cc1O)CCNC21CSC2c3c(OC(C)=O)c(C)c4c(c3C(COC1=O)N1C(O)C3Cc5cc(C)c(OC)c(O)c5C(C21)N3C)OCO4` (centres undefined), for the setting “compound 94.9 pM”, the viability, T/C is recorded as 95.3, 96.7, 99.1, 88.1, 96.4, 91.4, 94.7, 72.5, 94.8, 97.4%. Regarding `CC1COCCN1c1cc(-c2ccnn2C)c2ccnc(-c3ccn[nH]3)c2n1` (centres undefined), the viability, T/C (compound alone 0.0316 µM) was 47.1%, 50.7%, 9.73%. Consider `Cn1nnc2c(C(N)=O)ncn2c1=O`, for which, for the setting “compound alone 100 µM”, the viability, T/C was 103, 105, 113, 44.1, 107 (2×), 109, 108, 111% (2×).
